# Out of some 310,000 compounds screened, about 2,200 (0.71%) showed an effect of 50% or more. Effects have a minus sign here. Some of the results follow.
# Target: human ether-à-go-go-related gene (hERG) potassium channel (human, UniProt Q12809)
# Experiment: primary screen, population patch clamp on CHO cells stably expressing hERG
# Sequence of human ether-à-go-go-related gene (hERG) potassium channel (Q12809 whole entry, looked up): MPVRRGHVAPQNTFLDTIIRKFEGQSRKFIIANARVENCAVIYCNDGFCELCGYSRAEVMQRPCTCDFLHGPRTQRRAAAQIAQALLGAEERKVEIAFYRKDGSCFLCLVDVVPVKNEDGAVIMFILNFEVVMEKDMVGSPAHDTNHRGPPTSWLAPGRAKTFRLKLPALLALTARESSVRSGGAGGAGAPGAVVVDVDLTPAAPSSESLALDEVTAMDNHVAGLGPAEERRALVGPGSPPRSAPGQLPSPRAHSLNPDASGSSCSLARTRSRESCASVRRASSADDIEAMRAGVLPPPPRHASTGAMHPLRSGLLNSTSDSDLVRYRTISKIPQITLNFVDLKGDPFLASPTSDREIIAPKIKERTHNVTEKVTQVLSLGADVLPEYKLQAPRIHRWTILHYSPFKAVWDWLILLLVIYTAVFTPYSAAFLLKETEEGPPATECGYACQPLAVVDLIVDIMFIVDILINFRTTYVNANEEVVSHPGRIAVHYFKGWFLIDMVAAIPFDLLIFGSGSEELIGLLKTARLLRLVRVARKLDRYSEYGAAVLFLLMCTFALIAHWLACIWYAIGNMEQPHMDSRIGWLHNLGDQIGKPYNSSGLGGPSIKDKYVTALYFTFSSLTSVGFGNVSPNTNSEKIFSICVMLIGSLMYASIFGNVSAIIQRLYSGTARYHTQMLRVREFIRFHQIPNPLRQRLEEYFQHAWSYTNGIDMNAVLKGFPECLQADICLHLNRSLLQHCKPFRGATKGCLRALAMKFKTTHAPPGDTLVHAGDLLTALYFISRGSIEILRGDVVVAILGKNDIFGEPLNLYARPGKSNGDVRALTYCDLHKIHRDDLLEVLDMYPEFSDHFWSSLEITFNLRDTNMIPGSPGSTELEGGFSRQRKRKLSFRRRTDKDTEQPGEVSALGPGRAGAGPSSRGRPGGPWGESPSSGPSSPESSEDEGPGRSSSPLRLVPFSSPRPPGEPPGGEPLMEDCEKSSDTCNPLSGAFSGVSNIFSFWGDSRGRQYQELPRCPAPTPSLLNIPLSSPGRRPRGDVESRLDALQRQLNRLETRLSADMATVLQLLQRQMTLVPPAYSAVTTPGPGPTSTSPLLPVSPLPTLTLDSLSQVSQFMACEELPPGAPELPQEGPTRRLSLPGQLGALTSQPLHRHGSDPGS
row,SMILES,"hERG current change (%, negative = inhibition) at 1uM"
1,C/C(Cl)=C\Cn1c(N2CCCC2)nc2c1c(=O)[nH]c(=O)n2C,-3.57%
2,CC1=C/C(=N\NC(=O)c2cccs2)CC(C)(C)C1,11%
3,O=C(CN(c1cccc([N+](=O)[O-])c1)S(=O)(=O)c1ccccc1)N1CCCCC1,2.23%
4,COc1ccc(OC)c(Cc2nnc(CCC(=O)NC3CCCC3)o2)c1,7.43%
5,CN(C)C(=S)c1ccccc1,2.16%
6,Cc1ccc(/C=C(\NC(=O)c2ccc(C)cc2)C(=O)NCCCn2ccnc2)cc1,-87%
7,COc1ccccc1C(=O)NCC(=O)NC1CCCc2ccccc21 (stereo not shown),5.96%
8,CCn1c(/C=C/c2cc(Br)ccc2O)nc2ccccc2c1=O,17%
9,Cc1no[n+]([O-])c1COc1ccc(/C=N/n2nnnc2N)cc1,6.73%
10,CC(C)OP(=O)(c1ccc(N(C)C)cc1)C(O)c1c(Cl)cccc1Cl (stereo not shown),-3.92%
11,COc1ccc(CN(C(=O)CCC(=O)Nc2cc(C)on2)C(C(=O)NC(C)(C)C)c2cccc(OC)c2OC)cc1 (stereo not shown),10.1%
12,COc1ccc(CC(=O)NNC(=O)CCC(=O)Nc2cc(C)ccc2C)cc1,12.8%
13,COc1ccc(NC(=S)NCCc2c[nH]c3ccccc23)c(OC)c1,9.68%
14,Cc1cc(C)n2nc(SCC(=O)N(C)C3CCCCC3)nc2n1,-9.19%
15,CCC(=O)Nc1cccc(C2=NOC3(C2)C[C@H](C(N)=O)N(C(=O)c2ccc(Cl)cc2)C3)c1 (stereo partly shown),12.3%
16,Cc1ccc(C(=O)NCC2CCCO2)o1 (stereo not shown),3.43%
17,Cc1ccc(NP(=O)(c2ccccc2)c2nc3ccccc3s2)cc1 (stereo not shown),2.14%
18,Cc1cc2c(c(=O)o1)C(CC(C)C)C(C#N)=C(N)O2 (stereo not shown),0.104%
19,COC(=O)COc1cccc(NC(=O)C(c2ccccc2)c2ccccc2)c1,14.9%
20,O=C(Nc1nc2ccc(F)cc2s1)c1ccc(N2CCCC2=O)cc1,17.1%
21,CC1=NN(C(=O)c2ccccc2Cl)C(O)(c2cccnc2)C1 (stereo not shown),12.8%
22,COc1ccc(/C=C/c2noc(-c3ccccc3O)n2)cc1,7.62%
23,CCn1c2ccccc2c2cc(/C=N/n3cn[nH]c3=S)ccc21,16%

row,SMILES,"hERG current change (%, negative = inhibition) at 1uM"
1,O=C(O)c1cc(-c2ccccc2)nc2ccccc12,15.2%
2,Cl.N=C(N)c1ccc(N)cc1,14.2%
3,Cc1cc(S(=O)(=O)NC(C)C)ccc1OCC(=O)NCc1ccccc1,6.97%
4,COc1ccc2c(c1)CCC1C2=NN(/C(C)=C\C(C)=O)C1c1ccc(F)cc1 (stereo not shown),4.03%
5,Cc1nc2ccc(NC(=O)c3cccs3)cc2s1,15.9%
6,Brc1cccc(-c2nnc(SCc3ccon3)n2-c2ccccc2)c1,-6.13%
7,COCCNC(=O)c1cnn2c(C(F)(F)F)cc(-c3ccc4c(c3)OCO4)nc12,-7.42%
8,Cc1cc(NC(=O)Cn2nc(C(F)(F)F)c3c2CCCC3)no1,2.49%
9,C=CCS(=O)(=O)c1cccc2cccnc12,10.1%
10,O=C(CSc1cccc(C(F)(F)F)c1)N1CCN(S(=O)(=O)c2ccccc2)CC1,-0.365%
11,O=S(=O)(c1ccc(-c2nnco2)cc1)N1CCCCC1,13.4%
12,Cc1ccnc(NC(=O)C2CCN(S(=O)(=O)c3ccc4ccccc4c3)CC2)c1,5.86%
13,COc1cc(C(C)=O)ccc1OCC(O)CN1CCN(c2ccc(C)cc2C)CC1 (stereo not shown),-6.48%
14,COc1ccccc1Oc1ccc(NC(=O)Cc2ccccc2)cc1,11.7%
15,COc1cc(NS(=O)(=O)c2ccc(NC(=O)c3ccc(S(=O)(=O)N4CCCC4)cc3)cc2)ncn1,16.3%
16,O=[N+]([O-])c1ccc(NCc2ccncc2)cc1,10.1%
17,CC(C)NC(=O)/C(=N\O)c1ccccc1,-2%
18,Cc1cc(NC(=O)C(C)SCC(=O)OCC(=O)Nc2c(C)cccc2C(C)C)no1 (stereo not shown),6.36%
19,CC(C)Cc1nnc(NC(=O)CCC(=O)Nc2ccc(F)cc2)s1,0.226%
20,Cc1nc([N+](=O)[O-])cn1CC(O)c1ccc(Cl)cc1 (stereo not shown),4.78%
21,CSc1ncccc1C(=O)N1CCCC(CCC(=O)NCc2ccc(F)c(F)c2)C1 (stereo not shown),6.69%
22,COC(=O)c1ccc(N2CCC(c3cc(-c4ccc(OC)cc4)n[nH]3)CC2)c([N+](=O)[O-])c1,17.1%
23,O=C(Nc1nc(-c2cc3ccccc3oc2=O)cs1)c1ccco1,12.2%

row,SMILES,"hERG current change (%, negative = inhibition) at 1uM"
1,COc1ccc(C)cc1-n1nnnc1SCc1csc(C)n1,-4.07%
2,CC1(C)Cc2nc3sc4c(SCC(=O)NCc5ccco5)ncnc4c3cc2CO1,15.7%
3,O=C(NCc1cccs1)C(=O)NCC1OCCCN1S(=O)(=O)c1cc(F)ccc1F (stereo not shown),5.58%
4,CCOC(=O)c1ccc(-c2ccc(C=O)o2)cc1,16.1%
5,CN(C)c1ccc(C=Nc2ccccc2)cc1,13.7%
6,O=C(Nc1ccc(NS(=O)(=O)c2ccccc2)cc1)c1ccccc1,12.9%
7,Cc1cccc(N(CC(=O)NC(C)(C)C)C(=O)CS(=O)CC(=O)Nc2ccc3c(c2)OCO3)c1 (stereo not shown),9.48%
8,COc1ccc(C(c2nnnn2CC2CCCO2)N2CCN(c3ccc(F)cc3)CC2)cc1.Cl (stereo not shown),-11.5%
9,COC(=O)c1ccc(C(=O)N2CCCC(Nc3ccc(C(C)C)cc3)C2)cc1 (stereo not shown),3.4%
10,O=C1[C@H](O)[C@@H](O)C(=O)N1Cc1ccccc1,12%
11,Cn1cccc1C(=O)C(=O)Nc1ccccc1C(F)(F)F,9.27%
12,COC(=O)C1=C(C)NC(=O)NC1c1ccc2ccccc2c1 (stereo not shown),11.8%
13,O=C(COc1ccc(F)cc1)N(CC1=CCS(=O)(=O)C1)c1ccccc1,2.17%
14,O=C(CSc1nc2ncc(Br)cc2[nH]1)Nc1ccc2c(c1)OCO2,22.4%
15,CCOC(=O)C1(Cc2ccccc2C(F)(F)F)CCN(C2CCN(C(C)C)CC2)CC1,7.19%
16,CCOC(=O)c1cc(-c2ccc(C)o2)n[nH]1,11.6%
17,COc1ccc(C(=O)OC(C)CN2CCN(C)CC2)cc1.Cl (stereo not shown),12.7%
18,COc1ccc(C(=O)NCCCc2nc3ccccc3n2Cc2ccccc2C)cc1OC,-4.12%
19,O=C(O)CC(Cc1ccccc1)C(=O)Nc1ccc([N+](=O)[O-])cc1 (stereo not shown),-0.798%
20,Cc1sc2ncnc(NCC3CCCO3)c2c1C.Cl (stereo not shown),5.91%
21,CC12CCC(C(=O)N(c3ccccc3Cl)C1=O)C2(C)C (stereo not shown),-7.03%
22,CCN(CC(=O)Nc1c(F)cccc1F)C(=O)/C=C/c1c(C)nn(-c2ccc(F)cc2)c1C,18.3%
23,CCN1C(=NCCCCO)N[C@@H](c2cccc(C(F)(F)F)c2)C(C(=O)OC)=C1C,15.7%

row,SMILES,"hERG current change (%, negative = inhibition) at 1uM"
1,CC1=CN2CC(O)CN=C2C=C1.Cl (stereo not shown),-2.43%
2,CCOc1ccc(CCNC(=O)c2cc([N+](=O)[O-])ccc2N2CCOCC2)cc1OCC,-4.36%
3,COc1ccc(-n2c(=O)c3ccccc3n(Cc3cccc(C)c3)c2=O)cc1OC,6.87%
4,O=C(Nc1nc2c(Cl)cccc2s1)C1CC1,11.6%
5,Cn1nc(C(F)(F)F)c(-c2ccc(F)cc2)c1NC(=O)Nc1ccc(F)cc1,8.82%
6,CSc1ccccc1C(=O)NCC1CCCO1 (stereo not shown),-5.4%
7,COC(=O)CSc1nnc(-c2cnccn2)n1C,8.35%
8,O=C(CSc1nnnn1C1CCCC1)Nc1ccccc1F,3.31%
9,CCOc1ncccc1C(=O)OCC(=O)c1c(N)n(C)c(=O)n(C)c1=O,5.09%
10,Cc1cc(C)n(CCNC(=O)c2cc(COc3ccc4ncccc4c3)on2)n1,5.98%
11,COc1cc(/C=C/C(=O)OCc2cn3cc(Cl)ccc3n2)ccc1O,10.3%
12,CC1(C)CC(=O)C(C=NC2CCCCC2)=C(O)C1,1.05%
13,CCCN1C(=O)C(NC(C)=O)c2ccccc21 (stereo not shown),0.349%
14,CCCCCSc1nc(O)cc(=O)[nH]1,12.8%
15,O=C(Nc1ccc(Cl)cc1)ON=C1CCCC1,9.85%
16,CCNC(=S)N1CCN(S(=O)(=O)c2ccc(C)cc2)CC1,9.13%
17,O=C1c2ccccc2C(=O)C1Cc1cccc2ccccc12,-10.2%
18,O=C(/C=C/c1ccccc1)C1C(=O)c2ccccc2C1=O,2.28%
19,COc1ccc(N/N=C(\C#N)C(N)=O)cc1,8.96%
20,CCOc1cc(/C=N/NS(=O)(=O)c2ccccc2)ccc1OS(=O)(=O)c1ccc(C)cc1,9.42%
21,CCOC(=O)N1CCC(NC(=O)c2cccc3c2C(=O)N(CCOC)C3)CC1,13.8%
22,CCCOC(=O)N[C@@H]1C(=O)N2C(C(=O)OCCC)=C(C)CS[C@H]12,3.49%

# Source: paper PMC4336329 (PLoS ONE, 2015)
